PubChem BioAssay AID1963576 (National Center for Advancing Translational Sciences (NCATS), 2024)
In all, about 46,000 compounds went through this assay and about 60 (0.1%) were called active. Inconclusive results (about 3%) are left out. The call rests on the fitted dose curve; in most records, active means well fitted inhibition curve with a large enough effect; inconclusive means small, poorly fitted or top-dose-only effect; inactive means no such curve, though single readings can be large or run the other way. The list shows a part of the results.

Experiment: Primary qHTS assay for Inhibitors of ovarian cancer metastasis using an organotypic tumor microenvironment (TME) model. Further: nearly all actives have a fitted effect of over 65% in size.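 On activity change, negative = inhibition: plate controls were DMSO wells for no effect and tomatine positive control wells for full effect.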
Conditions: SKOV3ip1-GFP adhesion/invasion on 3D omental model, fluorescence; series mostly up to 45.8 µM; activity change, negative = inhibition: at the top concentration
Method in brief: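 Primary human omental fibroblast/mesothelial 3D culture pre-formed 48 h. SKOV3ip1-GFP cells added with compounds (0.36-46 umol/L), incubated 2 h RT/16 h 37 C, fixed; GFP cells quantified at 488/509 nm.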

Activity change, negative = inhibition, inactive:
COc1ccc(S(=O)(=O)N2CCN(c3ccccc3OC)CC2)cc1 -6.47%, CCOC(=O)c1sc(NC(=O)c2c(-c3ccccc3)c(-c3ccccc3)nn(C)c2=O)nc1C 5.49%, NC(=O)c1cccc(-c2cccc(OC(=O)NC3CCCCC3)c2)c1 -6.48%, CC1CCN(c2ccc(-c3cccc(NS(=O)(=O)c4ccc(F)cc4F)c3)nn2)CC1 1%, COc1ccc(N(C)C(=O)Cn2cc(S(=O)(=O)N3CCN(c4ccccc4F)CC3)c3ccccc3c2=O)c(OC)c1 -2.77%, Cc1[nH]c(=O)c(C#N)cc1-c1ccc2nccn2c1 -23.3%, Cc1cc2c(cc1S(=O)(=O)Nc1cc(C(F)(F)F)cc(C(F)(F)F)c1)OCC(=O)N2 -5.42%, Cc1ccc(NC(=O)/C=C/c2ccccc2Cl)cc1Cl -18.7%, O=C(Cn1c(=O)nc(-c2ccccc2)c2ccccc21)Nc1ccc(Cl)cc1F -8.48%, Cc1cccc(-n2c(=O)c3ccccc3n(Cc3ccc(F)cc3)c2=O)c1 -11.7%, COc1ccc(NC(=O)C2CCN(S(=O)(=O)c3c(C)noc3/C=C/c3cccs3)CC2)cc1Cl 0.492%, CCOc1ccc(-c2c(C)nn3c(C)c(C(=O)NCCc4ccc(C)cc4)cnc23)cc1OCC -19.3%, CCc1c(C)sc2c1CCN(Cc1ccccc1F)C2c1ccccc1 (stereo not given) -6.92%, COC(=O)Cc1c(C)c2ccc3c(c2oc1=O)CN(Cc1ccccc1Cl)CO3 11.2%, Cc1ccc(-n2cnnn2)cc1S(N)(=O)=O -1.58%, CCc1cc2c(cc3c(=O)n(CC(=O)NCCc4ccc(OC)cc4OC)nc(CC)n32)s1 -0.905%, COc1ccc2[nH]cc(CCN=C(NC(=O)c3ccccc3OC)Nc3nc(C)cc(C)n3)c2c1 -3.35%, COCCNC(=O)c1ccccc1NC(=O)c1nsc2ccccc12 -10.9%, CCSc1ncc(Cl)c(C(=O)Nc2cccc(Cl)c2)n1 -1.57%, Cc1ccccc1Nc1c(-c2ccc(N3CCOCC3)cc2)nc2ccc(Br)cn12 -14.6%, COc1cccc(Cn2cc(C(=O)c3ccc(Cl)cc3)c(=O)c3ccccc32)c1 -0.446%, Cc1ccc(NC(=O)c2ccc(NC(=O)CCS(=O)(=O)c3cccs3)cc2)cc1F -23%, COc1ccccc1N1CCN(C(=O)C2CCCN(S(=O)(=O)c3ccc4c(c3)CCCN4C(C)=O)C2)CC1 (stereo not given) 9.41%, COc1cc(NC(=O)CSc2nc3nc(C)c(Cc4ccccc4Cl)c(C)n3n2)cc(OC)c1 -7.29%, Cc1ccc2c(=O)cc(C(=O)Nc3c(C)n(C)n(-c4ccccc4)c3=O)oc2c1 -12.6%, CCOC(=O)C1(C)C=C(Nc2cccc(C(=O)O)c2)C(=O)N1c1ccccc1 (stereo not given) 9.62%, COC(=O)C(CCSC)Nc1ncnc2onc(-c3ccc(F)cc3)c12 (stereo not given) 1.01%, CC(C)Cn1c(-c2cccc(Br)c2)nc2ccccc21 0.498%, COc1cc(Cl)c(C)cc1NC(=O)c1cnc(N2CCCCC2)c2ccccc12 4.03%, CCCOc1ccc(CNC(=O)C(NS(=O)(=O)c2cccs2)C(C)C)cc1 (stereo not given) 3.81%, OCc1cnc(SCc2ccccc2F)n1Cc1ccc(F)cc1 -4.54%, CCOc1ccccc1NC(=O)C(=O)Nc1ccc2nc3n(c(=O)c2c1)CCCCC3 -8.84%, Cc1ccccc1OCc1ccc(-c2nc(C#N)c(N3CCN(c4cccc(Cl)c4)CC3)o2)o1 1.61%, Cc1cc(C)c(NC(=O)C2CCCN(S(=O)(=O)c3c(C)noc3C)C2)c(C)c1 (stereo not given) 2.46%, Cc1cc(C)cc(NC(=O)Cc2noc3ccccc23)c1 -9.16%, O=C(c1ccccc1)N1c2nc(-c3ccco3)nn2C2(CCCCC2)[C@@H]2CCCC[C@@H]21 0.703%, CN(C(Cc1ccc(OS(=O)(=O)c2cccc3cnccc23)cc1)C(=O)N1CCN(c2ccccc2)CC1)S(=O)(=O)c1cccc2cnccc12 (stereo not given) -12.2%, CCC(=O)N1CCc2cc(S(=O)(=O)NCCC(=O)Nc3ccc(N(CC)CC)cc3C)ccc21 -13.4%, CCN(CC)S(=O)(=O)c1ccc(C(=O)NCCSc2c(-c3ccccc3)[nH]c3ccccc23)cc1 -2.76%, CCCCCCOc1ccc(C2C(=O)N(C3CCCCC3)CC(=O)N2C2CCCCC2)cc1 (stereo not given) -9.63%, COc1cc(NC(=O)CSc2c3c(nc4ccccc24)CCC3)cc(OC)c1OC -9.94%, NC(=O)c1cc(S(=O)(=O)N2CCN(c3cccc(C(F)(F)F)c3)CC2)cs1 -2.48%, Cc1ccc(-c2nn3c(C)nnc3c3ccccc23)cc1S(=O)(=O)NCC(C)O (stereo not given) 1.39%, CCc1ccccc1N(C)C(=O)C1CCCN(c2ncnc3c2nc2n3CCCCC2)C1 (stereo not given) -5.87%, COc1cc(NC(=O)c2cc3cc4ccc(C)cc4nc3o2)cc(OC)c1OC -1.19%, Cc1ccc(-n2ncc(C(=O)NCc3ccco3)c2C2CCN(C(=O)OC(C)(C)C)CC2)cc1C -0.409%, O=C(CSc1nc(-c2cccc(F)c2)[nH]c1-c1ccccc1)Nc1ccc2c(c1)OCO2 6.16%, O=C(CSc1nc2ccccc2nc1Cc1ccc(Cl)cc1)N1CCN(c2ccccc2)CC1 -3.91%, Cc1c(C(=O)Nc2cc(F)ccc2F)sc2nc(-c3ccc(F)cc3)cn12 -1.79%, COc1ccc2c3c1OC1C[C@@H](O)C=C[C@@]31CCN(C)C2 (stereo not given in full) 7.09%, N#Cc1c(-c2ccccc2)cc(-c2ccccc2)nc1SCC(O)CS(=O)(=O)Cc1ccc(Cl)cc1 (stereo not given) -7.13%, Cc1ccccc1-c1noc(-c2ccccc2OCC(=O)Nc2cccc([N+](=O)[O-])c2)n1 -2.55%, O=C1CN(C(=O)c2ccc(S(=O)(=O)N3CCCC3)cc2)C(c2ccccc2)c2cc(F)ccc2N1 (stereo not given) 2.3%, CN(C)c1ccc(Nc2ncnc3c2c(-c2ccccc2)cn3-c2cccc(Cl)c2)cc1 -8.64%, CCOC(=O)c1cc2c(=O)n3ccccc3nc2n(C(C)C)c1=NC(=O)C(C)(C)Oc1ccc(Cl)cc1 -7.84%, CCn1cc(/C=C(\NC(=O)c2cc(OC)c(OC)c(OC)c2)C(=O)NCCCn2ccnc2)c2ccccc21 3.94%, CCN(Cc1nc(-c2ccc(OC)c(OC)c2)no1)S(=O)(=O)c1ccc(OC)cc1 -0.798%, C#Cc1cccc(Nc2ncnc3cc(OCCOC)c(OCCO)cc23)c1 4.52%, COc1ccccc1N1CCN(C(=O)CN2C(=O)COc3ccc(S(=O)(=O)N4CCOCC4)cc32)CC1 -9.75%, CCN(CC)C(=O)c1c(-c2ccccc2)c(-c2ccccc2)nn(CC)c1=O -16.5%, COc1ccc(CCC(=O)NC2CC(=O)N(c3ccc(F)cc3)C2)cc1 (stereo not given) 3.26%, COC(=O)c1ccccc1NS(=O)(=O)c1cc2c(cc1C)N(C)CCO2 -10.8%, Cc1cccc(S(=O)(=O)c2cn(Cc3ccccc3)c3cc(N4CCCCC4)c(F)cc3c2=O)c1 -8.48%, CC[C@H](CC#N)OC(=O)N[C@@H](C)c1cccc(NC(=O)Nc2ccc(-c3cnco3)c(OC)c2)c1 -25.2%, CC(C)(C)OC(=O)N1CCC(c2c(C(=O)NC3CCCCC3)cnn2-c2ccc(F)cc2F)CC1 0.95%, Cc1ccc(S(=O)(=O)C(CNS(=O)(=O)c2cc(F)ccc2F)c2cccs2)cc1 (stereo not given) -4.8%, COc1cc(CNC(=O)c2cnc(SC)nc2-c2ccccc2)cc(OC)c1OC -1.44%, Cn1cnc2c(F)c(Nc3ccc(Br)cc3F)c(C(=O)NOCCO)cc21 8.15%, COc1cccc(CNC(=O)Cn2ncn3nc(-c4cccs4)cc3c2=O)c1 -21.2%, COc1ccc(Cn2ccc3nc(C)c(C(=O)Nc4cccc(SC)c4)cc3c2=O)cc1 -3.02%, Oc1c(C(Nc2ccccn2)c2ccccc2F)ccc2cccnc12 (stereo not given) 0.761%, Cc1ccc(NC(=O)C2CCN(S(=O)(=O)c3cccc4nsnc34)CC2)cc1F -12.1%, Cc1noc(C)c1S(=O)(=O)N(CC(=O)Nc1ccc(F)cc1F)c1ccc(C(C)C)cc1 -8.7%, CCN1CCN(c2oc(-c3ccc(COc4ccccc4C)o3)nc2C#N)CC1 -27.1%, O=C(O)c1ccccc1C(=O)Nc1ccc(Br)c2cccnc12 -5.58%, CC(=O)c1ccc(NS(=O)(=O)c2ccc3c(c2)NC(=O)CCS3)cc1 3.35%

outcome, inactive:
CC1CCN(C(=O)CSc2nc(-c3ccc(F)cc3)cc(C(F)(F)F)n2)CC1, COc1ccc(NC(=O)C2=C(C)Nc3nc(SCc4ccc(Cl)cc4)nn3C2c2cccc(OC)c2OC)cc1 (stereo not given), CCc1ccc(Nc2nc3ccccc3nc2NS(=O)(=O)c2ccccc2)cc1, Cc1nc2cccnc2n1C1CCN(C(=O)Nc2ccc(Cl)cc2)CC1, Cc1cc2[nH]c(=O)c(=O)[nH]c2cc1S(=O)(=O)N1CCN(c2cccc(Cl)c2)CC1, COC(=O)Cn1c(SCCOc2ccccc2OC)nc2ccccc21, CNC(=O)CN1C(=O)COc2ccc(S(=O)(=O)N3CCC(C)CC3)cc21, Cc1ccc(Nc2ncnc3sc4c(c23)CCC(C)C4)cc1C (stereo not given), Cc1ccc(CNC(=O)C(=O)NCC(c2ccc3c(c2)OCO3)N2CCOCC2)cc1 (stereo not given), COc1cc2nc(SCc3ccc(C)cc3)n3nc(CCn4nc(C)cc4C)nc3c2cc1OC, Cc1cc(C)cc(NC(=O)C(Cc2ccccc2)NS(=O)(=O)c2ccc3c(c2)CCC(=O)N3)c1 (stereo not given), O=C(c1ccc2c(c1)N(Cc1ccc(F)cc1)C(=O)c1ccccc1S2(=O)=O)N1CCCCC1, CCc1c(C)c2cc3c(c(C)c2oc1=O)OCN(CCc1ccccc1F)C3, Cc1cccc(C)c1NC(=O)Cn1nnc(S(=O)(=O)c2ccccc2)c1N, Cc1c(C(=O)NCCN(C)C)oc2c1-c1nn(Cc3cccc(Cl)c3)cc1CC2, Cc1cc(NC(=O)Cc2ccccc2)cc(-c2nc3ccccc3o2)c1O, COc1ccc(-c2nc3sc(CCNC(=O)c4ccc(Br)o4)c(C)n3n2)cc1, O=C(CSc1nc(=O)n(Cc2ccccn2)c2c1CCC2)Nc1ccccc1, CCCNC(=O)c1ccc2c(c1)nc1n2CCCCC1
